# Source: the supplement of paper PMC8728848
# Some of the results follow.
# B1: diCBM40 CPF071 (Clostridium perfringens) (protein)
# chain: MAHHHHHHVGTGSNDDDDKSPDPMLSSLGEYKDINLESSNASNITYDLEKYKNLDEGTIVVRFNSKDSKIQSLLGISNSKTKNGYFNFYVTNSRVGFELRNQKNEGNTQNGTENLVHMYKDVALNDGDNTVALKIEKNKGYKLFLNGKMIKEVKDTNTKFLNNIENLDSAFIGKTNRYGQSNEYNFKGNIGFMNIYNEPLGDDYLLSKTGETKALNGSELGSGSGLSSLGEYKDINLESSNASNITYDLEKYKNLDEGTIVVRFNSKDSKIQSLLGISNSKTKNGYFNFYVTNSRVGFELRNQKNEGNTQNGTENLVHMYKDVALNDGDNTVALKIEKNKGYKLFLNGKMIKEVKDTNTKFLNNIENLDSAFIGKTNRYGQSNEYNFKGNIGFMNIYNEPLGDDYLLSKTGETK
# Tests used:
# Test in all cases: glycan array binding signal (z-score within array); higher = stronger binding
# Conditions in all cases: glycan notation: IUPAC condensed, linker removed
# [1] = biological target: Fuc(a1-2)[Gal(a1-4)]Gal(b1-4)GlcNAc
# How it was run: (§1)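 Columns mapping to the same glycan were averaged after glycan names were converted to IUPAC-condensed notation. The data come from 3228 arrays in the Consortium for Functional Glycomics database, limited to those with an available protein sequence. Binding is reported as a within-array Z-score averaged across arrays of one protein sequence and across linkers.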
# [2] = biological target: Fuc(a1-2)[GalNAc(a1-3)]Gal
# How it was run: as §1
# [3] = biological target: Fuc(a1-2)[GalNAc(a1-3)]Gal(b1-3)GalNAc(a1-3)[Fuc(a1-2)]Gal(b1-4)GlcNAc
# How it was run: as §1
# [4] = biological target: Fuc(a1-2)[GalNAc(a1-3)]Gal(b1-3)GalNAc(b1-3)Gal(a1-4)Gal(b1-4)Glc
# How it was run: as §1
# [5] = biological target: Fuc(a1-2)[GalNAc(a1-3)]Gal(b1-3)GlcNAc
# How it was run: as §1
# [6] = biological target: Fuc(a1-2)[GalNAc(a1-3)]Gal(b1-3)GlcNAc(b1-2)Man(a1-3)[Fuc(a1-2)[GalNAc(a1-3)]Gal(b1-3)GlcNAc(b1-2)Man(a1-6)]Man(b1-4)GlcNAc(b1-4)GlcNAc
# How it was run: as §1
# [7] = biological target: Fuc(a1-2)[GalNAc(a1-3)]Gal(b1-3)GlcNAc(b1-2)Man(a1-3)[Fuc(a1-2)[GalNAc(a1-3)]Gal(b1-3)GlcNAc(b1-2)Man(a1-6)]Man(b1-4)GlcNAc(b1-4)[Fuc(a1-6)]GlcNAc
# How it was run: as §1
# [8] = biological target: Fuc(a1-2)[GalNAc(a1-3)]Gal(b1-3)GlcNAc(b1-3)GalNAc
# How it was run: as §1
# [9] = biological target: Fuc(a1-2)[GalNAc(a1-3)]Gal(b1-3)GlcNAc(b1-6)GalNAc
# How it was run: as §1
# [10] = biological target: Fuc(a1-2)[GalNAc(a1-3)]Gal(b1-4)Glc
# How it was run: as §1
# [11] = biological target: Fuc(a1-2)[GalNAc(a1-3)]Gal(b1-4)GlcNAc
# How it was run: as §1
# [12] = biological target: Fuc(a1-2)[GalNAc(a1-3)]Gal(b1-4)GlcNAc(b1-2)Man
# How it was run: as §1
# [13] = biological target: Fuc(a1-2)[GalNAc(a1-3)]Gal(b1-4)GlcNAc(b1-2)Man(a1-3)[Fuc(a1-2)[GalNAc(a1-3)]Gal(b1-4)GlcNAc(b1-2)Man(a1-6)]Man(b1-4)GlcNAc(b1-4)GlcNAc
# How it was run: as §1
# [14] = biological target: Fuc(a1-2)[GalNAc(a1-3)]Gal(b1-4)GlcNAc(b1-2)Man(a1-3)[Fuc(a1-2)[GalNAc(a1-3)]Gal(b1-4)GlcNAc(b1-2)Man(a1-6)]Man(b1-4)GlcNAc(b1-4)[Fuc(a1-6)]GlcNAc
# How it was run: as §1
# [15] = biological target: Fuc(a1-2)[GalNAc(a1-3)]Gal(b1-4)GlcNAc(b1-3)Gal(b1-4)GlcNAc
# How it was run: as §1
# [16] = biological target: Fuc(a1-2)[GalNAc(a1-3)]Gal(b1-4)GlcNAc(b1-3)Gal(b1-4)GlcNAc(b1-3)Gal(b1-4)GlcNAc
# How it was run: as §1
# [17] = biological target: Fuc(a1-2)[GalNAc(a1-3)]Gal(b1-4)GlcNAc(b1-3)GalNAc
# How it was run: as §1
# [18] = biological target: Fuc(a1-2)[GalNAc(a1-3)]Gal(b1-4)GlcNAc(b1-3)[Fuc(a1-2)[GalNAc(a1-3)]Gal(b1-4)GlcNAc(b1-6)]GalNAc
# How it was run: as §1
# [19] = biological target: Fuc(a1-2)[GalNAc(a1-3)]Gal(b1-4)GlcNAc(b1-6)GalNAc
# How it was run: as §1
# [20] = biological target: Fuc(a1-2)[GalNAc(a1-3)]Gal(b1-4)[Fuc(a1-3)]GlcNAc
# How it was run: as §1
# [21] = biological target: Fuc(a1-2)[GalNAc(a1-3)]Gal(b1-4)[Fuc(a1-3)]GlcNAc(b1-3)GalNAc
# How it was run: as §1
# [22] = biological target: Fuc(a1-2)[GalNAc(a1-4)]Gal(b1-4)GlcNAc
# How it was run: as §1
# [23] = biological target: Fuc(a1-2)[GalNAc(b1-3)]Gal
# How it was run: as §1
# [24] = biological target: Fuc(a1-3)GlcNAc
# How it was run: as §1
# [25] = biological target: Fuc(a1-3)[Gal(b1-4)]Glc6S
# How it was run: as §1
# [26] = biological target: Fuc(a1-3)[Gal(b1-4)]GlcNAc
# How it was run: as §1
# [27] = biological target: Fuc(a1-3)[Gal(b1-4)]GlcNAc(b1-2)Man
# How it was run: as §1
# [28] = biological target: Fuc(a1-3)[Gal(b1-4)]GlcNAc(b1-2)Man(a1-3)[Fuc(a1-3)[Gal(b1-4)]GlcNAc(b1-2)Man(a1-6)]Man(b1-4)GlcNAc(b1-4)GlcNAc
# How it was run: as §1
# [29] = biological target: Fuc(a1-3)[Gal(b1-4)]GlcNAc(b1-2)Man(a1-3)[Fuc(a1-3)[Gal(b1-4)]GlcNAc(b1-2)Man(a1-6)]Man(b1-4)GlcNAc(b1-4)[Fuc(a1-6)]GlcNAc
# How it was run: as §1
# [30] = biological target: Fuc(a1-3)[Gal(b1-4)]GlcNAc(b1-3)Gal(b1-3)[Fuc(a1-4)]GlcNAc
# How it was run: as §1
# [31] = biological target: Fuc(a1-3)[Gal(b1-4)]GlcNAc(b1-3)Gal(b1-4)[Fuc(a1-3)]GlcNAc
# How it was run: as §1
# [32] = biological target: Fuc(a1-3)[Gal(b1-4)]GlcNAc(b1-3)Gal(b1-4)[Fuc(a1-3)]GlcNAc(b1-3)Gal(b1-4)[Fuc(a1-3)]GlcNAc
# How it was run: as §1
# [33] = biological target: Fuc(a1-3)[Gal(b1-4)]GlcNAc(b1-3)GalNAc
# How it was run: as §1
# [34] = biological target: Fuc(a1-3)[Gal(b1-4)]GlcNAc(b1-6)GalNAc
# How it was run: as §1
# [35] = biological target: Fuc(a1-3)[Gal(b1-4)]GlcNAc(b1-6)[Gal(b1-3)GlcNAc(b1-3)]Gal(b1-4)Glc
# How it was run: as §1
# [36] = biological target: Fuc(a1-3)[Gal(b1-4)]GlcNAc6S
# How it was run: as §1
# [37] = biological target: Fuc(a1-3)[Gal3S(b1-4)]Glc
# How it was run: as §1
# [38] = biological target: Fuc(a1-3)[Gal3S(b1-4)]GlcNAc
# How it was run: as §1
binder,measurement,setting,value
B1,glycan array binding signal (z-score),[1],-0.342
same,glycan array binding signal (z-score),[2],-0.302
same,glycan array binding signal (z-score),[3],-0.268
same,glycan array binding signal (z-score),[4],-0.281
same,glycan array binding signal (z-score),[5],-0.343
same,glycan array binding signal (z-score),[6],-0.308
same,glycan array binding signal (z-score),[7],-0.294
same,glycan array binding signal (z-score),[8],-0.288
same,glycan array binding signal (z-score),[9],-0.287
same,glycan array binding signal (z-score),[10],-0.264
same,glycan array binding signal (z-score),[11],-0.223
same,glycan array binding signal (z-score),[12],-0.328
same,glycan array binding signal (z-score),[13],-0.314
same,glycan array binding signal (z-score),[14],-0.324
same,glycan array binding signal (z-score),[15],-0.321
same,glycan array binding signal (z-score),[16],-0.168
same,glycan array binding signal (z-score),[17],-0.285
same,glycan array binding signal (z-score),[18],-0.287
same,glycan array binding signal (z-score),[19],-0.321
same,glycan array binding signal (z-score),[20],-0.317
same,glycan array binding signal (z-score),[21],-0.143
same,glycan array binding signal (z-score),[22],-0.255
same,glycan array binding signal (z-score),[23],-0.287
same,glycan array binding signal (z-score),[24],-0.335
same,glycan array binding signal (z-score),[25],-0.148
same,glycan array binding signal (z-score),[26],-0.346
same,glycan array binding signal (z-score),[27],-0.313
same,glycan array binding signal (z-score),[28],-0.326
same,glycan array binding signal (z-score),[29],-0.084
same,glycan array binding signal (z-score),[30],0.191
same,glycan array binding signal (z-score),[31],-0.287
same,glycan array binding signal (z-score),[32],-0.183
same,glycan array binding signal (z-score),[33],-0.257
same,glycan array binding signal (z-score),[34],-0.315
same,glycan array binding signal (z-score),[35],-0.311
same,glycan array binding signal (z-score),[36],-0.291
same,glycan array binding signal (z-score),[37],-0.174
same,glycan array binding signal (z-score),[38],-0.335
